# Results reported in the supplement of paper PMC8728848.
# This is one part of the list.
# Tests used:
# Assay in all cases: glycan array binding signal (z-score within array); higher = stronger binding
# Settings in all cases: glycan notation: IUPAC condensed, linker removed
# [1] = target: Fuc(a1-2)[GalNAc(a1-3)]Gal(b1-4)Glc
# Summary of the method: (§1)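 Glycan array binding is given as a within-array Z-score, which can be read as non-binding when negative. The arrays, 3228 of them, came from the Consortium for Functional Glycomics database and were retained only where the protein sequence was available. Z-scores were averaged across arrays of the same protein sequence at different concentrations or buffers and across linkers.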
# [2] = target: Fuc(a1-2)[GalNAc(a1-3)]Gal(b1-4)GlcNAc
# Summary of the method: as §1
# [3] = target: Fuc(a1-2)[GalNAc(a1-3)]Gal(b1-4)GlcNAc(b1-2)Man(a1-3)[Fuc(a1-2)[GalNAc(a1-3)]Gal(b1-4)GlcNAc(b1-2)Man(a1-6)]Man(b1-4)GlcNAc(b1-4)GlcNAc
# Summary of the method: as §1
# [4] = target: Fuc(a1-2)[GalNAc(a1-3)]Gal(b1-4)GlcNAc(b1-2)Man(a1-3)[Fuc(a1-2)[GalNAc(a1-3)]Gal(b1-4)GlcNAc(b1-2)Man(a1-6)]Man(b1-4)GlcNAc(b1-4)[Fuc(a1-6)]GlcNAc
# Summary of the method: as §1
# [5] = target: Fuc(a1-2)[GalNAc(a1-3)]Gal(b1-4)GlcNAc(b1-3)Gal(b1-4)GlcNAc
# Summary of the method: as §1
# [6] = target: Fuc(a1-2)[GalNAc(a1-3)]Gal(b1-4)GlcNAc(b1-3)Gal(b1-4)GlcNAc(b1-3)Gal(b1-4)GlcNAc
# Summary of the method: as §1
# [7] = target: Fuc(a1-2)[GalNAc(a1-3)]Gal(b1-4)GlcNAc(b1-3)GalNAc
# Summary of the method: as §1
# [8] = target: Fuc(a1-2)[GalNAc(a1-3)]Gal(b1-4)[Fuc(a1-3)]GlcNAc
# Summary of the method: as §1
# [9] = target: Fuc(a1-2)[GalNAc(a1-3)]Gal(b1-4)[Fuc(a1-3)]GlcNAc(b1-3)GalNAc
# Summary of the method: as §1
# [10] = target: Fuc(a1-2)[GalNAc(a1-4)]Gal(b1-4)GlcNAc
# Summary of the method: as §1
# [11] = target: Fuc(a1-2)[GalNAc(b1-3)]Gal
# Summary of the method: as §1
# [12] = target: Fuc(a1-3)GlcNAc
# Summary of the method: as §1
# [13] = target: Fuc(a1-3)[Gal(b1-4)]Glc6S
# Summary of the method: as §1
# [14] = target: Fuc(a1-3)[Gal(b1-4)]GlcNAc
# Summary of the method: as §1
# [15] = target: Fuc(a1-3)[Gal(b1-4)]GlcNAc(b1-2)Man(a1-3)[Fuc(a1-3)[Gal(b1-4)]GlcNAc(b1-2)Man(a1-6)]Man(b1-4)GlcNAc(b1-4)GlcNAc
# Summary of the method: as §1
# [16] = target: Fuc(a1-3)[Gal(b1-4)]GlcNAc(b1-2)Man(a1-3)[Fuc(a1-3)[Gal(b1-4)]GlcNAc(b1-2)Man(a1-6)]Man(b1-4)GlcNAc(b1-4)[Fuc(a1-6)]GlcNAc
# Summary of the method: as §1
# [17] = target: Fuc(a1-3)[Gal(b1-4)]GlcNAc(b1-3)Gal(b1-3)[Fuc(a1-4)]GlcNAc
# Summary of the method: as §1
# [18] = target: Fuc(a1-3)[Gal(b1-4)]GlcNAc(b1-3)GalNAc
# Summary of the method: as §1
# [19] = target: Fuc(a1-3)[Gal(b1-4)]GlcNAc(b1-4)Gal(b1-4)[Fuc(a1-3)]GlcNAc
# Summary of the method: as §1
# [20] = target: Fuc(a1-3)[Gal(b1-4)]GlcNAc(b1-4)Gal(b1-4)[Fuc(a1-3)]GlcNAc(b1-4)Gal(b1-4)[Fuc(a1-3)]GlcNAc
# Summary of the method: as §1
# [21] = target: Fuc(a1-3)[Gal(b1-4)]GlcNAc(b1-6)GalNAc
# Summary of the method: as §1
# [22] = target: Fuc(a1-3)[Gal(b1-4)]GlcNAc(b1-6)[Gal(b1-3)GlcNAc(b1-3)]Gal(b1-4)Glc
# Summary of the method: as §1
# [23] = target: Fuc(a1-3)[Gal(b1-4)]GlcNAc(b1-6)[Neu5Ac(a2-3)Gal(b1-3)]GalNAc
# Summary of the method: as §1
# [24] = target: Fuc(a1-3)[Gal(b1-4)]GlcNAc6S
# Summary of the method: as §1
# [25] = target: Fuc(a1-3)[Gal3S(b1-4)]GlcNAc
# Summary of the method: as §1
# [26] = target: Fuc(a1-3)[Gal3S(b1-4)]GlcNAc6S
# Summary of the method: as §1
# [27] = target: Fuc(a1-3)[GalNAc(b1-4)]GlcNAc
# Summary of the method: as §1
# [28] = target: Fuc(a1-4)GlcNAc
# Summary of the method: as §1
# [29] = target: Fuc(b1-3)GlcNAc
# Summary of the method: as §1
# [30] = target: Gal(a1-2)Gal
# Summary of the method: as §1
# [31] = target: Gal(a1-3)Gal
# Summary of the method: as §1
# [32] = target: Gal(a1-3)Gal(b1-3)GlcNAc
# Summary of the method: as §1
# [33] = target: Gal(a1-3)Gal(b1-3)GlcNAc(b1-2)Man(a1-3)[Gal(a1-3)Gal(b1-3)GlcNAc(b1-2)Man(a1-6)]Man(b1-4)GlcNAc(b1-4)GlcNAc
# Summary of the method: as §1
# [34] = target: Gal(a1-3)Gal(b1-3)GlcNAc(b1-3)GalNAc
# Summary of the method: as §1
# [35] = target: Gal(a1-3)Gal(b1-3)[Fuc(a1-4)]GlcNAc(b1-2)Man(a1-3)[Gal(a1-3)Gal(b1-3)[Fuc(a1-4)]GlcNAc(b1-2)Man(a1-6)]Man(b1-4)GlcNAc(b1-4)GlcNAc
# Summary of the method: as §1
# [36] = target: Gal(a1-3)Gal(b1-4)Glc
# Summary of the method: as §1
# [37] = target: Gal(a1-3)Gal(b1-4)GlcNAc
# Summary of the method: as §1
# [38] = target: Gal(a1-3)Gal(b1-4)GlcNAc(b1-3)GalNAc
# Summary of the method: as §1
# [39] = target: Gal(a1-3)Gal(b1-4)[Fuc(a1-3)]GlcNAc
# Summary of the method: as §1
# [40] = target: Gal(a1-3)Gal(b1-4)[Fuc(a1-3)]GlcNAc(b1-2)Man(a1-3)[Gal(a1-3)Gal(b1-4)[Fuc(a1-3)]GlcNAc(b1-2)Man(a1-6)]Man(b1-4)GlcNAc(b1-4)GlcNAc
# Summary of the method: as §1
# [41] = target: Gal(a1-3)GalNAc
# Summary of the method: as §1
# [42] = target: Gal(a1-3)[Gal(a1-4)]Gal(b1-4)GlcNAc
# Summary of the method: as §1
# [43] = target: Gal(a1-4)Gal(b1-3)GlcNAc(b1-2)Man(a1-3)[Gal(a1-4)Gal(b1-3)GlcNAc(b1-2)Man(a1-6)]Man(b1-4)GlcNAc(b1-4)GlcNAc
# Summary of the method: as §1
# [44] = target: Gal(a1-4)Gal(b1-4)Glc
# Summary of the method: as §1
# [45] = target: Gal(a1-4)Gal(b1-4)GlcNAc
# Summary of the method: as §1
binder,measurement,setting,value
"3FTT (Staphylococcus aureus), Q5HCZ5 (protein) MTEKEKMLAEKWYDANFDQYLINERARAKDICFELNHTRPSATNKRKELIDQLFQTTTDNVSISIPFDTDYGWNVKLGKNVYVNTNCYFMDGGQITIGDNVFIGPNCGFYTATHPLNFHHRNEGFEKAGPIHIGSNTWFGGHVAVLPGVTIGEGSVIGAGSVVTKDIPPHSLAVGNPCKVVRKIDNDLPSETLNDETIK",glycan array binding signal (z-score),[1],-0.111
same,glycan array binding signal (z-score),[2],-0.197
same,glycan array binding signal (z-score),[3],-0.105
same,glycan array binding signal (z-score),[4],-0.028
same,glycan array binding signal (z-score),[5],-0.09
same,glycan array binding signal (z-score),[6],0.147
same,glycan array binding signal (z-score),[7],-0.098
same,glycan array binding signal (z-score),[8],0.307
same,glycan array binding signal (z-score),[9],0.044
same,glycan array binding signal (z-score),[10],-0.204
same,glycan array binding signal (z-score),[11],0.173
same,glycan array binding signal (z-score),[12],-0.029
same,glycan array binding signal (z-score),[13],-0.183
same,glycan array binding signal (z-score),[14],-0.033
same,glycan array binding signal (z-score),[15],-0.062
same,glycan array binding signal (z-score),[16],0.132
same,glycan array binding signal (z-score),[17],-0.197
same,glycan array binding signal (z-score),[18],0.04
same,glycan array binding signal (z-score),[19],-0.153
same,glycan array binding signal (z-score),[20],-0.017
same,glycan array binding signal (z-score),[21],0.714
same,glycan array binding signal (z-score),[22],-0.271
same,glycan array binding signal (z-score),[23],-0.148
same,glycan array binding signal (z-score),[24],-0.031
same,glycan array binding signal (z-score),[25],-0.152
same,glycan array binding signal (z-score),[26],-0.029
same,glycan array binding signal (z-score),[27],-0.004
same,glycan array binding signal (z-score),[28],-0.229
same,glycan array binding signal (z-score),[29],-0.015
same,glycan array binding signal (z-score),[30],-0.132
same,glycan array binding signal (z-score),[31],-0.201
same,glycan array binding signal (z-score),[32],-0.034
same,glycan array binding signal (z-score),[33],-0.061
same,glycan array binding signal (z-score),[34],-0.02
same,glycan array binding signal (z-score),[35],0.2
same,glycan array binding signal (z-score),[36],-0.167
same,glycan array binding signal (z-score),[37],-0.14
same,glycan array binding signal (z-score),[38],-0.01
same,glycan array binding signal (z-score),[39],0.149
same,glycan array binding signal (z-score),[40],-0.072
same,glycan array binding signal (z-score),[41],-0.084
same,glycan array binding signal (z-score),[42],0.189
same,glycan array binding signal (z-score),[43],-0.237
same,glycan array binding signal (z-score),[44],-0.171
same,glycan array binding signal (z-score),[45],-0.263
